The list shows a part of the results.
Experiments:
[1] = tested on: HSkMC (human skeletal muscle cells); assay: cytotoxicity call (relative viability < 0.9); details: 10 µM
[2] = tested on: HepG2; assay: cytotoxicity call (relative viability < 0.9); details: 10 µM
[3] = tested on: S. aureus RN4220; assay: growth inhibition call (relative growth <= 0.2); details: 50 µM

Compound | cytotoxicity call [1] | cytotoxicity call [2] | growth inhibition call [3]
NCC[C@@H]1CC[C@@H](NC(=O)C2CCCCC2)[C@@H](CO)O1 | inactive | inactive | inactive
Cc1ccc(S(=O)(=O)Nc2ccc3c(c2)C(=O)N([C@@H](C)CO)C[C@H](C)[C@H](CN(C)Cc2ccc(C(F)(F)F)cc2)OCCCC[C@H](C)O3)cc1 | inactive | inactive | inactive
Cc1noc(C)c1S(=O)(=O)N(C)C[C@@H]1Oc2c(NC(=O)C3CCCCC3)cccc2C(=O)N([C@H](C)CO)C[C@@H]1C | inactive | inactive | inactive
C[C@H](CO)N1C[C@H](C)[C@@H](CN(C)C)OCCCC[C@H](C)Oc2ccc(NC(=O)Nc3ccc(C(F)(F)F)cc3)cc2C1=O | inactive | inactive | inactive
C[C@@H]1CCCCO[C@H](CN(C)C(=O)Nc2ccc(C(F)(F)F)cc2)[C@H](C)CN([C@@H](C)CO)C(=O)c2cc(NS(C)(=O)=O)ccc2O1 | inactive | inactive | inactive
COc1ccc(S(=O)(=O)Nc2cccc3c2O[C@@H](CN(C)Cc2ccc(-c4ccccc4)cc2)[C@@H](C)CN([C@H](C)CO)C3=O)cc1 | inactive | inactive | inactive
Cc1ccc(S[C@]2(C(=O)NCCCN(C)C)CC(=O)N(Cc3ccccc3C(F)(F)F)[C@@H]2c2ccc(CO)cc2)cc1 | inactive | inactive | inactive
CN(C)Cc1ccc([C@@H](N)c2ccncc2)cc1 | inactive | inactive | inactive
NC(Cc1cc(I)c(O)c(I)c1)C(=O)O.O.O (configuration not stated) | inactive | inactive | inactive
C[C@H]1CN([C@@H](C)CO)C(=O)Cc2cc(NC(=O)Nc3ccc4c(c3)OCO4)ccc2O[C@@H]1CN(C)Cc1ccc(Cl)c(Cl)c1 | inactive | inactive | inactive
CO[C@@H]1CN(C)C(=O)c2cc(NC(=O)CC(F)(F)F)ccc2OC[C@H](C)N(S(=O)(=O)c2cn(C)cn2)C[C@H]1C | inactive | inactive | inactive
CC(C)NC(=O)N(C)C[C@@H]1Oc2ccc(NS(=O)(=O)c3cccs3)cc2C(=O)N([C@H](C)CO)C[C@H]1C | inactive | inactive | inactive
C[C@H]1CN([C@@H](C)CO)C(=O)Cc2cc(NC(=O)CCC(F)(F)F)ccc2O[C@@H]1CN(C)Cc1ccc(C(F)(F)F)cc1 | inactive | inactive | inactive
COc1cccc(S(=O)(=O)N(C)C[C@@H]2Oc3ncc(C#CC(C)C)cc3C(=O)N([C@H](C)CO)C[C@@H]2C)c1 | inactive | inactive | inactive
Cc1ccc(S(=O)(=O)Nc2ccc3c(c2)C(=O)N([C@@H](C)CO)C[C@H](C)[C@@H](CN(C)C(=O)Nc2ccccc2)OCCCC[C@@H](C)O3)cc1 | inactive | inactive | inactive
Cc1ccc(S(=O)(=O)N2C[C@H](O)COC[C@H]3O[C@H](CC(=O)N[C@@H]4CCN(Cc5ccccc5)C4)CC[C@@H]32)cc1 | inactive | inactive | inactive
C[C@@H]1CN([C@@H](C)CO)C(=O)c2cc(NS(=O)(=O)c3ccc(Cl)cc3)ccc2O[C@@H](C)CCCCO[C@@H]1CN(C)C(=O)Cc1ccccc1 | inactive | inactive | inactive
C=CCC[C@@H](Cc1ccc(F)cc1)C(=O)O[C@@H](CNC(=O)[C@@H](CC=C)CC(=O)N[C@H](CO)Cc1ccccc1)c1ccccc1 | inactive | active | inactive
COc1ccc(CN(C)C[C@@H]2OCCCC[C@H](C)Oc3ccc(NC(=O)Cc4ccccc4)cc3C(=O)N([C@@H](C)CO)C[C@H]2C)cc1 | inactive | inactive | inactive
C[C@H](CO)N1C[C@H](C)[C@@H](CN(C)CC2CCOCC2)Oc2cc(C#Cc3ccccc3F)ccc2S1(=O)=O | inactive | inactive | inactive
COc1ccc(S(=O)(=O)Nc2cccc3c2O[C@@H](CN(C)Cc2ccc(-c4ccccc4)cc2)[C@@H](C)CN([C@@H](C)CO)C3=O)cc1 | inactive | inactive | inactive
O=C1c2c(O[C@@H]3O[C@H](CO)[C@@H](O)[C@H](O)[C@H]3O)cc(O)cc2O[C@@]1(O)Cc1ccc(O)cc1 | inactive | inactive | inactive
COc1ccc(CN(C)C[C@@H]2OCCCC[C@H](C)Oc3ccc(NC(=O)Nc4c(C)noc4C)cc3C(=O)N([C@@H](C)CO)C[C@@H]2C)cc1 | inactive | inactive | inactive
C[C@@H]1CN([C@H](C)CO)C(=O)c2cc(NC(=O)CCCCCC(=O)Nc3ccccc3N)ccc2O[C@H]1CN(C)C(=O)Nc1ccc(F)cc1 | inactive | inactive | inactive

Reference: the antibiotic and cytotoxicity screens of Wong et al. (2023)
